Source: PubChem BioAssay AID360 (National Center for Advancing Translational Sciences (NCATS), 2006)
In all, about 48,000 compounds went through this assay and about 550 (1.1%) were called active. About 4% were inconclusive and are not listed. Rule as the data show it: active = potency below about 15 µM; inconclusive = mostly about 16 µM to 33 µM; inactive = weaker than that. The list shows a part of the results.

target: Lysosomal acid glucosylceramidase (Homo sapiens) (UniProt P04062); assay: Glucocerebrosidase; conditions: purified enzyme, resorufin glucoside fluorescence (screen aimed at inhibitors), 20 min; series mostly up to 77 µM;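 also: the screen sought inhibitors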
Sequence of UniProt P04062 (P04062 whole entry, looked up): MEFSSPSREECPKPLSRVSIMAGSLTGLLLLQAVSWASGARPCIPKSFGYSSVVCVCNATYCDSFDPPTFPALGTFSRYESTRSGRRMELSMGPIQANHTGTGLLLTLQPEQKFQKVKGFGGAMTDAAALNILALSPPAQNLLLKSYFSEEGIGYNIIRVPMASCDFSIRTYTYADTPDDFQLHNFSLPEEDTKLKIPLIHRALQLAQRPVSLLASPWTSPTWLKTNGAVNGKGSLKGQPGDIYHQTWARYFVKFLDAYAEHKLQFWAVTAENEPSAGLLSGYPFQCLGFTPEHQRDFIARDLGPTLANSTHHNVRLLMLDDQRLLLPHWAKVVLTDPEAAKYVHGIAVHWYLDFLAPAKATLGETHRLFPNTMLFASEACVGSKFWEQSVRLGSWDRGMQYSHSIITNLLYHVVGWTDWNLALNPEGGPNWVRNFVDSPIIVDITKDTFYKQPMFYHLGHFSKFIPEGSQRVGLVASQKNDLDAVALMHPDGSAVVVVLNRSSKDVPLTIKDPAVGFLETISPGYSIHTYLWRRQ
Outline: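 Normal human glucocerebrosidase (0.2 nM final) was assayed with resorufin β-D-glucopyranoside (30 uM final) in 50mM citric acid/KH2PO4, 10mM sodium taurocholate, 0.01% tween-20, pH 5.9. Compounds were titrated; fluorescence (Ex 548, Em 600) read after 20 min at RT.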
Potency is read from the fitted curve at half-maximal effect.

Potency, inactive:
CCC(C(=O)c1ccc(O)cc1)c1ccccc1 (configuration not stated) > 76.9 µM
COC(=O)CSc1n[nH]c(-c2ccncc2)n1 > 76.9 µM
Cc1ccc(-n2c(SCC(=O)NCc3cccs3)nnc2-c2ccoc2C)cc1 > 76.9 µM
CN(Cc1ccccc1)C(=O)C1CCN(Cc2ccc(F)cc2)CC1 > 76.9 µM
C=CCn1c(SCC(=O)OCc2ccccc2)nc2c1c(=O)n(C)c(=O)n2C > 76.9 µM
COc1ccc2c(c1)CCCN2C(N)=O > 76.9 µM
CC(C)C(=O)Nc1ccc(NC(=O)c2ccco2)cn1 > 76.9 µM
CCOC(=O)c1cc2c(=O)n3ccccc3nc2n(CC(C)C)c1=NC(=O)c1ccco1 > 76.9 µM
c1cncc(CSc2nnc(-c3cccnc3)n2Cc2ccco2)c1 > 76.9 µM
COc1ccc(CCNc2ncnc3[nH]ncc23)cc1OC > 76.9 µM
COc1ccccc1-c1c(C)nn2c(N3CCC4(CC3)OCCO4)cc(C)nc12 > 76.9 µM
CCc1nc2ccc(C(=O)NCc3ccco3)cc2nc1CC > 76.9 µM
COc1ccc(C2=NO[C@@H]3C(=O)N(c4ccc5c(c4)OCCO5)C(=O)[C@H]23)cc1OC > 76.9 µM
Cc1cc(C)n(-c2ccc(C(=O)NCc3ccc4c(c3)OCO4)cc2)n1 > 76.9 µM
CCc1nnc(NC(=O)CSc2nnc(COc3ccc(C)cc3)n2-c2ccccc2)s1 > 76.9 µM
COc1ccc(C)cc1S(=O)(=O)N(CC(N)=O)Cc1ccccc1 > 76.9 µM
CCOc1cc(N2CCOCC2)c(OCC)cc1NC(=O)Cc1ccc(OC)c(OC)c1 > 76.9 µM
COc1ccc(C(=O)OCc2cc3cccc(C)c3[nH]c2=O)cc1 > 76.9 µM
Cn1c(SCC(=O)NCc2cccs2)nnc1-c1ccncc1 > 76.9 µM
Cc1noc(C)c1C(=O)Nc1sc2c(c1C(N)=O)CCCCC2 > 76.9 µM
Cn1c(NC(=O)C2c3ccccc3Oc3ccccc32)cc(=O)n(C)c1=O > 76.9 µM
CC1Cc2ccccc2N1C(=O)CCNS(=O)(=O)c1cccc2nsnc12 (configuration not stated) > 76.9 µM
O=C(O)c1cc(-c2ccco2)nc2ccc(Br)cc12 > 76.9 µM
COC(=O)[C@H](Cc1ccccc1)NC(=O)N1CCN(Cc2ccccc2)CC1 > 76.9 µM
CCNS(=O)(=O)c1ccc(OC)c(C)c1 > 76.9 µM
O=C1CSC(=Nc2cc(Cl)ccc2Cl)N1 > 76.9 µM
CCOc1ccc(Nc2nc3c(c(=O)[nH]2)CCC3)cc1 > 76.9 µM
CC(=O)Nc1ccccc1C(=O)N1CC(C)OC(C)C1 (configuration not stated) > 76.9 µM
CCN(C(=O)COC(=O)c1cc(C)n(-c2ccc(F)cc2)c1C)C1CCS(=O)(=O)C1 (configuration not stated) > 76.9 µM
COc1cc(C(=S)N(C)C)ccc1O > 76.9 µM
Cn1c(C(=O)NCCN2CCc3ccccc3C2)cc2c(=O)[nH]c3ccccc3c21 > 76.9 µM
Cc1cccc(N(Cc2ccccc2F)S(C)(=O)=O)c1 > 76.9 µM
CCCSc1nc(N)c(C#N)c(-c2ccc(C)cc2)c1C#N > 76.9 µM
Nc1ccc2oc(=O)c3ccccc3c2c1 > 76.9 µM
COc1ccccc1-c1nnc(SCC(=O)Nc2cc(C)on2)o1 > 76.9 µM
O=C(CN(c1ccccc1)S(=O)(=O)c1ccc(F)cc1)N1CCCCCC1 > 76.9 µM
CC(=O)OCC(OC(C)=O)C(OC(C)=O)C(OC(C)=O)C(=O)Nc1ccc(C)cc1C (configuration not stated) > 76.9 µM
CCc1nnc(NC(=O)C2Cc3ccccc3CN2S(=O)(=O)c2cccs2)s1 (configuration not stated) > 76.9 µM
Cc1cc(=O)n(-c2ccc(O)cc2)[nH]1
CC(C(=O)O)N1C(=O)CSC1=S (configuration not stated) > 76.9 µM
O=C(O)c1[nH]c2ccc(Cl)cc2c1CC(=O)N1CCN(C(=O)c2ccco2)CC1 > 76.9 µM
CC(C)(C)N1C(=O)c2ccc(C(=O)NCc3ccco3)cc2C1=O > 76.9 µM
OCc1csc(=Nc2ccccc2)n1-c1ccccc1 > 76.9 µM
CC(=O)Nc1ccc(S(=O)(=O)NCCc2csc(C)n2)cc1 > 76.9 µM
Cc1cc(C)cc(-n2ccnc2SCC(=O)Nc2ccc3c(c2)OCCO3)c1 > 76.9 µM
CCN1C(=O)C2(/C(=C(\O)c3ccc4c(c3)OCCO4)C(=O)C(=O)N2CCCOC)c2ccccc21 (configuration not stated) > 76.9 µM
Cc1cccc(NC(=O)c2c(O)c3cccc4c3n(c2=O)CCC4)n1 > 76.9 µM
CCOc1ccc(N2CC(C(=O)NCc3ccc(F)cc3)CC2=O)cc1 (configuration not stated) > 76.9 µM
Cc1cccc(Nc2ncccc2C(=O)O)c1C > 76.9 µM
O=C(CSc1nnc(-c2cnccn2)n1Cc1ccco1)c1ccc2ccccc2c1 > 76.9 µM
Cc1cc(NC(=O)CSc2nc(C(C)C)nc3sc(C)c(C)c23)no1 > 76.9 µM
CCC(=O)n1nc(-c2ccc(OC)cc2)nc1N > 76.9 µM
COc1ccc(NS(=O)(=O)c2ccc3oc(Nc4ccc5c(c4)OCCO5)nc3c2)cc1 > 76.9 µM
Cn1c(=O)c2c(nc(CN3CCc4ccccc4C3)n2Cc2ccccc2F)n(C)c1=O > 76.9 µM
c1cnc(Oc2ccc(-c3nnco3)cc2)cn1 > 76.9 µM
CC(=O)N(c1c(C)n(C)n(-c2ccccc2)c1=O)C1(C(=O)NC2CCCC2)CCCCC1 > 76.9 µM
COC(=O)c1cc(C(=O)OC)cc(-n2c(C)cc(C(=O)CC#N)c2C)c1 > 76.9 µM
CCn1c(Cc2ccccc2)nnc1SCC(=O)Nc1nnc(-c2ccccc2)s1 > 76.9 µM
O=C(Nc1cccc(C(=O)N2CCOCC2)c1)c1cccnc1 > 76.9 µM
O=C(CN1C(=O)COc2ccccc21)NCc1ccc(C(=O)O)cc1 > 76.9 µM
CCc1ccc2oc(-c3cc(N)cc(C)c3O)nc2c1 > 76.9 µM
O=C(COC(=O)c1ccc(Cl)c(S(=O)(=O)N2CCCC2)c1)NC1CCCC1 > 76.9 µM
CCC(=O)Nc1ccc(Cl)c(NC(=O)c2cccnc2)c1 > 76.9 µM
CC(C)(C)Cc1nnc(NS(=O)(=O)c2ccc(F)cc2)s1 > 76.9 µM
CCOc1ccc(S(=O)(=O)N(CC(=O)O)c2ccc(C)cc2)cc1 > 76.9 µM
Cc1nc2nc(-c3ccccc3)cn2nc1C > 76.9 µM
O=C(O)CCOc1ccc2c(c1)OCCO2 > 76.9 µM
CC1=CC(C)(C)N=C(NC#N)N1 > 76.9 µM
N#CCCn1cnc2ccccc21 > 76.9 µM
CC(C)C(NC(=O)c1ccccc1)C(=O)NCc1ccccn1 (configuration not stated) > 76.9 µM
COc1ccc(S(=O)(=O)CCC(=O)Nc2c(C)n(C)n(-c3ccccc3)c2=O)cc1 > 76.9 µM
Cc1ccc(CC(=O)NCC(C)C)cc1 > 76.9 µM
Cc1ccc(C)c(N=C2NC(=O)CS2)c1 > 76.9 µM
O=C(Nc1ccc(OC(=O)c2cccs2)cc1)c1ccco1 > 76.9 µM
O=C(Nc1ccc(-c2nc3ccccc3o2)cc1)c1ccc2c(c1)OCO2 > 76.9 µM
Cc1ccc2c(c1)NC(=O)C(N1CCOCC1)(C(F)(F)F)O2 (configuration not stated) > 76.9 µM
CC1(C)NC(=O)N(CC(O)COc2ccccc2-c2ccccc2)C1=O (configuration not stated) > 76.9 µM
CS(=O)(=O)N1CCC(C(=O)Nc2cc(C(F)(F)F)ccc2Cl)CC1 > 76.9 µM
CCOC(=O)N1CCN(c2c(N3CCN(c4cccc(C(F)(F)F)c4)CC3)c(=O)c2=O)CC1 > 76.9 µM
CS(=O)(=O)NCc1ccc(C(=O)NCc2ccccc2)cc1 > 76.9 µM
CCOc1ccc(-c2nnc(N)o2)cc1 > 76.9 µM
O=C(CCN1C(=O)c2ccccc2C1=O)N1CCN(c2ccccc2)CC1 > 76.9 µM
COc1ccc(-c2nc(C#N)c(NCc3ccc(C)cc3)o2)cc1OC > 76.9 µM
CCCCN(C(=O)Cn1nnc2ccccc21)C(C(=O)NCCOC)c1ccc(OC)cc1 (configuration not stated) > 76.9 µM
C/C(N)=N\S(=O)(=O)c1ccc(Cl)cc1 > 76.9 µM
CCOC(=O)C(C(C)=O)c1c(Br)c(O)c(O)c2c(C(=O)c3ccc(C)cc3)coc12 (configuration not stated) > 76.9 µM
COc1cccc(-n2nnc3c(=O)n(CC(=O)N4CCC(Cc5ccccc5)CC4)cnc32)c1 > 76.9 µM
Cn1c(=O)c2c(nc(Br)n2C)n(C)c1=O > 76.9 µM
CCCCn1c(C(C)NC(=O)c2cccs2)nc2ccccc21 (configuration not stated)
O=C1CCCN1CN(C(=O)c1ccccc1)c1ccc(F)cc1 > 76.9 µM
N#Cc1ccccc1Sc1ccccc1C(=O)OCC(=O)N1CCN(C(=O)c2ccco2)CC1 > 76.9 µM
O=C(Nc1ccc2c(c1)OCCO2)C1CCN(C(=O)c2ccc(Br)cc2)CC1 > 76.9 µM
